Assay results taken from the RNAGym collection of RNA variant scans (doi:10.7554/elife.90254).
The source gives no read counts; variants with many changes may rest on few reads.

B1: LINE1-full (parent)
chain: UACGUAGGUGGUUUUCCCCUGAUAGUGCUAAGGGGGCCUGGAAGUUUGGACUGGGCAGAGCUCAACACAGCGUGGCAAAGUGGCUGUGGCUAGACUGCCUCUCUGGAUUCCUCGUCACUCAGCAGGGCAUCUCUGAGAGAAAUGCC

Variants of: B1
Assay: self-cleavage, relative activity (ratio to wild type); higher = more cleavage; in vitro, sequencing; the parent is a self-cleaving ribozyme

Variant	self-cleavage
G35A A59U A138G	0.79
G35A A64G U115A	0.17
G35A A67G U115C	0
G35A A69G U119C	0.08
G35A A77G A79G C84A	0.13
G35A A79C G89A A94G U134C A142G	0.04
G35A A79G A107G A121U	0.93
G35A A121C A140G	1.37
G35A C61U C131U	0.01
G35A C116U A117U U119C U130A	1.41
G35A G40A U47C	0.21
G35A U39A C90U	0.03
G35A U39C A117U U119C	1.08
G35A U39C U96A U119C A121G A138G	0.09
G35A U45C C95U U115A C118U	0.04
G35A U45C U87C	0.06
G35A U46C A77G	1.96
G35A U46C U52A	1.12
G35A U47A A94G U100C	0.2
G35A U47C C123A	0.95
G35A U52C U96A U134A	0.05
G35A U62C U104C	0.04
G35A U73C A124C	1.34
G35A U85C A117C A129U	0.15

Variant	self-cleavage
G35A U87A U119C	0.06
G35A U108C U109C A124G A136G	0
G35A U109C U115C	0.66
G35A U109G U112C	0.26
G35A U112A G126A	1.43
G35C A69G A92G	0.2
G35C A78G U130C	1.44
G35C U45C A67G	0.68
G35C U45C U47C	1.96
G35C U52C A77U A124G A138G	0.19
G35C U52C U104C U132C	0.92
G35C U73C U96C A142G	0
G35U A42G G86A	0.09
G35U A42G U134C	2.01
G35U A64G A92G	0.16
G35U A79G U96A	0.06
G35U G40A G105A U132C	1.55
G35U G83U U130A	0.72
G35U U45C A69G	0
G35U U47C A121C	0.91
G35U U47C U52C C90U	0.09
G35U U52C A59U U62A A129G A140U C145U	0.05
G35U U73A A121G	1.87
G35U U73A A138G	1.61

Variant	self-cleavage
G35U U73A A141U	1.34
G35U U87C A138G	0.12
G35U U100C C113U	1.49
G35U U100C U102A	1.87
G36A A43G A124G	0.86
G36A A57G U62C U96C A121C	0
G36A A57U A78G	0
G36A A59G A94G	0.2
G36A A78G U87A A92G U100C A141U	0.03
G36A A79U A107G U108A U134A	0.76
G36A A94G U96A U130A	0.09
G36A A94G U115A	0.13
G36A C51U U100C U143C	1.46
G36A G40A U46C A94G A140U	0.09
G36A G40A U62A U91C	0.02
G36A G55A U62C A67G A92U U108C C131U	0.05
G36A U39A A121U U134C	1.19
G36A U39C A43U A138U	1.53
G36A U46C U102A U104C U115A	1.86
G36A U47C A92U	0.65
G36A U52C U104C	0.98
G36A U62C U108C A136C	0.03
G36A U81C A117G U130C A140G	0.61
G36A U87C A142G	0.17

Variant	self-cleavage
G36A U87C U100C U104A	0.21
G36A U96A U112C	0.05
G36A U104C U108C G139A	1.79
G36A U112A A142G U143A	1.13
G36C A42G U100C C128U	1.85
G36C A42U U143C	1.43
G36C A64U G72U A107G U108C	0.38
G36C A107G C123G	1.43
G36C G89U U102C	0.03
G36C U45C U81A C128U	1.86
G36C U47C G58A U62C C68U U104A A124U	0.03
G36C U47C U134G	0.65
G36C U73C U87A	0.15
G36C U87C U91C A117U A141G	0.07
G36C U109A A121G A129G	2.35
G36U A42G U112C	0.82
G36U A65U U134A	0.2
G36U A69U U73C A124G	0.05
G36U A121G A140G	2.3
G36U G80U U91G A129G	0.02
G36U U45C U109C	1.86
G36U U134A A140G	0.37
C37A A78G U96C A141U	0
C37A G54U A94G U109C	0.03

Variant	self-cleavage
C37A U46C A79G A92G U109C G139A	0
C37A U47C U85C U112C	0.2
C37A U73A U100C A129G U132C	1.98
C37A U104C A121G	1.64
C37A U115C A138G A141G	1.84
C37G A57G A94U A138U A140G A142G	0.04
C37G A65G A140G A142G	0
C37G A69U U73A G86A	0.02
C37G A69U U73A U91A U112C	0.02
C37G A94U U132A	0.11
C37G A107G U134A A136U U143C	0.95
C37G A138G A141G	0.68
C37G U96C U100C	0.29
C37G U96C U112C	0.09
C37G U102C U112C	1.44
C37U A50C A67G U73A U143C	0.12
C37U A65G A117G	0
C37U A65U U96C A121U A138U	0.06
C37U A65U U132C	0.15
C37U A77G A117G	1.99
C37U A78U U100C A138U	2.67
C37U A78U U134C	1.86
C37U A92G G114A	0.02
C37U C38U U39C	0.98

Variant	self-cleavage
C37U C66A A94G	0.03
C37U G75A A78G U100A	0.04
C37U U39C A129G	1.29
C37U U45A A67G	0.24
C37U U46C A59G A94G	0.06
C37U U46C A65G A77U	0.02
C37U U46C C120U	1.39
C37U U47A U109C U115C U130C	1.97
C37U U52C U62A A69G A107G U130C A138G	0.24
C37U U52C U91A	0.59
C37U U62C U87A A107G C116U	0
C37U U73C U85C	0.06
C37U U85C U104C U143C	0.1
C37U U87A U134C A138G	0.03
C37U U102A A136G A140G	1.14
C37U U102C A142G	0.61
C38A A64U A94U A121G	0.16
C38A A129U A136G	1.36
C38A C51U U143G	0.9
C38A G74A A124U A140G	0.86
C38A U45G A142G	0.96
C38A U46G A141U	1.11
C38A U73A A79G A142G	1.07
C38A U73C A129U	2.12

Variant	self-cleavage
C38A U85A U104C	0.1
C38G A50U U52C U130C A140G	1.79
C38G U39C A129U	1.59
C38U A42G A59G A67C	0.29
C38U A65U C90G	0.04
C38U A79G A92G U130C	0
C38U A92G U102C	0.09
C38U A94C U115A U132C A142U	0.01
C38U A94G A136U	0.23
C38U G40A A77U U85C A124G	0.07
C38U G54A G75A	0.6
C38U U47A A67U A142G	0.07
C38U U85C G122U	0.15
C38U U91C U96C U102C G127A	0.09
C38U U96A A138G	0.03
C38U U108C U119C	0.98
C38U U108C U130C	1.37
C38U U115C A124C A141G	1.67
U39A A42G A79G	0.5
U39A A42G A107U	1.28
U39A A42G A136G	0.9
U39A A42G G44C A77G	1.73
U39A A43G A57G	0.43
